These are yes or no findings as the source states them, for the method shown. For some assays here: Binding seen in cells or lysates may run through a third protein. Some results given as binding are weak or reduced against the parent protein; the word gives no strength. For some assays here: Sequences can lack the tags named with a protein.
Tests used:
[1] = target: GST-GCM1 (human) (UniProt Q9NP62); experiment: pull-down; about 45 ng immunopurified GATA3-FLAG incubated with 0.5 μg GST or 1.5 μg GST-GCM1 pre-bound to glutathione-conjugated agarose beads, lysis buffer, 4 °C, 3 h; immunoblot with FLAG Ab; both purified
[2] = target: T1, HA-GCM1 (human) (UniProt Q9NP62); experiment: co-IP; 293T cells cotransfected with the two expression plasmids (2.5 μg each), harvested 48 h after transfection in lysis buffer (50 mM Tris-HCl pH 8.0, 150 mM NaCl, 2 mM EDTA, 10% glycerol, 0.5% NP-40, 1 mM DTT); coimmunoprecipitation with FLAG and HA Abs (reciprocal in Fig. 3B, C)
T1 sequence: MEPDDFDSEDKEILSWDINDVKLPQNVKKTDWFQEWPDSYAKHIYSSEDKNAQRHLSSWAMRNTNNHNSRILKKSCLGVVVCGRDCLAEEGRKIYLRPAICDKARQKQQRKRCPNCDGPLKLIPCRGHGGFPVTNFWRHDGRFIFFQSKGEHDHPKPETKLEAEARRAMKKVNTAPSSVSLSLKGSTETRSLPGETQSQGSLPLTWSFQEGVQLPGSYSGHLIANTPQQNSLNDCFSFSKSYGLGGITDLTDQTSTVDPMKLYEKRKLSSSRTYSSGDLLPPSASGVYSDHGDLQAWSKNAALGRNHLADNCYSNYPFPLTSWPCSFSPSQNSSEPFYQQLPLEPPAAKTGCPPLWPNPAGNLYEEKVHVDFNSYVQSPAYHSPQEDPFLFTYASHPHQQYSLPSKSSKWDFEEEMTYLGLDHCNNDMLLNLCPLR

By UniProt entry, the sequences of proteins in these tests, tags left out.
UniProt P23771: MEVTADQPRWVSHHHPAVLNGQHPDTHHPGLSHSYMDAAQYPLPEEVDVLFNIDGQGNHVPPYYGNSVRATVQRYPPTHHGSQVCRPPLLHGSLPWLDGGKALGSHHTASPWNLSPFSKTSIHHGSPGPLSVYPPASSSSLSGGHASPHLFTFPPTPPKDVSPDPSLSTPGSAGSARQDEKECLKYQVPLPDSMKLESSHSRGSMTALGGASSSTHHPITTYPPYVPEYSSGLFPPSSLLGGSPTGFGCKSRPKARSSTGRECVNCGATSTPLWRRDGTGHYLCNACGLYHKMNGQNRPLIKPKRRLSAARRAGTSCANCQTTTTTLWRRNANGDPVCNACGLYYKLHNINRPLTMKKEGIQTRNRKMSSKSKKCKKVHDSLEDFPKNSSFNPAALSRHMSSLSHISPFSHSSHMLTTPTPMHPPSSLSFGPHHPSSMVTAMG

[3] = target: T2, HA-tagged GCM2 (human) (UniProt O75603); experiment: as above
T2 sequence: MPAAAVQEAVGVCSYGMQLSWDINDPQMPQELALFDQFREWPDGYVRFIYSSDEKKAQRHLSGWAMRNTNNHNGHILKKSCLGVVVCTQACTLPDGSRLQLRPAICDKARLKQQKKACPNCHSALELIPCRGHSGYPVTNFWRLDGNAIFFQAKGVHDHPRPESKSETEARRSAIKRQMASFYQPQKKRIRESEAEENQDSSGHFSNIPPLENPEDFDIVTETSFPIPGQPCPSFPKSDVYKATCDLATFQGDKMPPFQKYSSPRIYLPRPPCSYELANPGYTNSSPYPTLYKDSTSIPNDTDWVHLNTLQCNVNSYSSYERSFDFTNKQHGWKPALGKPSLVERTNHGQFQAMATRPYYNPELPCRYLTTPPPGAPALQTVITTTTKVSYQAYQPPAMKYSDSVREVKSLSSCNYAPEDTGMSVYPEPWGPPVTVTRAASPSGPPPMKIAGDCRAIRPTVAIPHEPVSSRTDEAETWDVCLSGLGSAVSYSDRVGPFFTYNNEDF

[4] = target: T3, Gal4-GCM1-FLAG, N-terminal domain (amino acids 1-167) of GCM1 (human) (UniProt Q9NP62); experiment: as above
T3 sequence: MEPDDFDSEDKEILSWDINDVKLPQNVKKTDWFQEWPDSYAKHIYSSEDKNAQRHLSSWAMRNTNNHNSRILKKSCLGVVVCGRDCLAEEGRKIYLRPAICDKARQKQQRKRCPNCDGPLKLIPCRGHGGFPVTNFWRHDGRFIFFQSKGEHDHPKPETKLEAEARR

[5] = target: T4, Gal4-GCM1-FLAG, amino acids 167-349 of GCM1 (TAD1) (human) (UniProt Q9NP62); experiment: as above
T4 sequence: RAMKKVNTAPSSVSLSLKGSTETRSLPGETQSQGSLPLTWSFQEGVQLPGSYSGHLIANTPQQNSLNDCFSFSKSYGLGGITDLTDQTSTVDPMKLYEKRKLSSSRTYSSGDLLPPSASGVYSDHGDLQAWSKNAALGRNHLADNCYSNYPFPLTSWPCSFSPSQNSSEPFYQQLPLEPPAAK

[6] = target: T5, Gal4-GCM1-FLAG, full-length GCM1 (human) (UniProt Q9NP62); experiment: as above
T5 sequence: T1 sequence

[7] = target: T6, endogenous GCM1 (human (endogenous in BeWo, JEG-3 and primary human trophoblast cells)) (UniProt Q9NP62); experiment: co-IP; endogenous proteins in BeWo, JEG-3 and primary human trophoblast cells; rabbit anti-GCM1 Ab (or rabbit normal IgG) for immunoprecipitation, mouse anti-GATA3 Ab for immunoblotting
T6 sequence: T1 sequence

For GATA3-FLAG (from UniProt P23771 1-443), which binding [1] is on record?
Its binding is “binds”.

What about the binding [2] of the same substance?
The binding was “binds”.

What about the binding [3] of the same substance?
Its binding is “no binding”.

How did the binding [2] turn out when “Gal4-GATA3-FLAG, full-length GATA3 (from UniProt P23771 1-443)” was run?
Its binding is “binds”.

Which results are given for HA-GATA3 (from UniProt P23771 1-443)?
binding [4]: binds; binding [5]: binds; binding [6]: binds

Which binding [7] does the source give for “endogenous GATA3 (from UniProt P23771 1-443)” here?
The binding was “binds”.
